Paper PMC4336329 (PLoS ONE, 2015)
The whole screen tested about 310,000 compounds, of which about 2,200 (0.71%) showed an effect of 50% or more. The effect is printed as a negative number. This is one part of the list.

The compounds below were run against human ether-à-go-go-related gene (hERG) potassium channel (human, UniProt Q12809) (assay: primary screen, population patch clamp on CHO cells stably expressing hERG).
Chain of human ether-à-go-go-related gene (hERG) potassium channel (Q12809 whole entry, looked up): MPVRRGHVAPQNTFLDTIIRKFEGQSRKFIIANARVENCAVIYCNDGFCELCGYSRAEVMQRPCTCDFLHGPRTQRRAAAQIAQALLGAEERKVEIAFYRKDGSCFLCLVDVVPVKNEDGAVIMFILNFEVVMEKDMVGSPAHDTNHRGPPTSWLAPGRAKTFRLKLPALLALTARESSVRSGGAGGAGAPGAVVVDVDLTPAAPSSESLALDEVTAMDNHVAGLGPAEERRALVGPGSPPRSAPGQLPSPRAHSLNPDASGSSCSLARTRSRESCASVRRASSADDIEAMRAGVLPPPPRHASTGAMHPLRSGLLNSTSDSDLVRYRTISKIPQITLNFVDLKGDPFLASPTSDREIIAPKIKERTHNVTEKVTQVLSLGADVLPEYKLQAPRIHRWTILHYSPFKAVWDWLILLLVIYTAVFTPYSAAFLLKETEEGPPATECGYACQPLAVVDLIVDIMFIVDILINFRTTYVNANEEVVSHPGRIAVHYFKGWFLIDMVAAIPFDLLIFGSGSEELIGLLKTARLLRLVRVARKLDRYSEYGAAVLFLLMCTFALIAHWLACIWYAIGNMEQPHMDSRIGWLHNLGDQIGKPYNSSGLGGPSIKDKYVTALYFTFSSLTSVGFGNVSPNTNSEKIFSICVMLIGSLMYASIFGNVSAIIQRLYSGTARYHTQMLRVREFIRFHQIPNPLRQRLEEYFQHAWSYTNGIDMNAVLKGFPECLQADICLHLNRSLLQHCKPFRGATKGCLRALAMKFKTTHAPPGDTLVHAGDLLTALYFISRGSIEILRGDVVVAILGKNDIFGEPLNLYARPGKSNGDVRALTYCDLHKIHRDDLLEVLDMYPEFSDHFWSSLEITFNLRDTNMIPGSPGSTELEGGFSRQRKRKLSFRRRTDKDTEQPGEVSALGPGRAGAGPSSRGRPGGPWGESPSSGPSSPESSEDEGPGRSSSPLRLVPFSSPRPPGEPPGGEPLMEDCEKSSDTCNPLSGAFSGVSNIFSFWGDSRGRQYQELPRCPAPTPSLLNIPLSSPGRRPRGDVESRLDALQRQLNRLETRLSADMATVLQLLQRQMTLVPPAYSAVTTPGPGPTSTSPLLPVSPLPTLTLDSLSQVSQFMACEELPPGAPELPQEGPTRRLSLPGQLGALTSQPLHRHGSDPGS

Compound | hERG current change (%, negative = inhibition) at 1uM [%]
CCOC(=O)c1c(C)c(C(=O)NCc2cccnc2)c(C)n1CC | 10
Fc1ccccc1OCCSc1nnnn1-c1ccccc1 | 3.58
COc1ccc(-c2nn(CCC#N)cc2C(=O)Nc2ccc(C(C)=O)cc2)cc1 | 13.1
CCOC(=O)C1=C(C)Nc2nc(C)nn2C1c1cc(OC)ccc1OC (centres unmarked) | 10.9
CN(C)CCCNC(=O)COc1ccc(Br)cc1Cl | 1.49
CN(CC(=O)Nc1c(Cl)cccc1Cl)C(=O)c1sccc1-c1ccccc1 | 4.52
CCOC(=O)C1CCN(c2ncnc3c2c(-c2ccccc2)cn3-c2ccccc2)CC1 | 9.7
Nc1nc(NCCOCCO)nc(N2CCCCCC2)c1[N+](=O)[O-] | 12.9
C[C@@H]1NC(=O)/C(=C\c2ccccc2Br)NC1=O | 12.2
C/C(Cl)=C/Cn1c(NCCN(C)C)nc2c1c(=O)n(C)c(=O)n2C | -12.9
O=Cc1ccc(-c2ccc(Cl)cc2Cl)[nH]1 | 12.1
O=C(OCC#CCSc1nnc(-c2ccccc2)o1)c1cccs1 | -1.02
COc1ccc(CCNC(=O)c2n[nH]c3ccccc23)cc1 | 28.1
Cc1ccc(NC(=O)C(NC2CCCc3ccccc32)c2ccccc2)c([N+](=O)[O-])c1.O=C(O)C(=O)O (centres unmarked) | 13.6
O=C(OCC(=O)N1CCN(c2ccccc2)CC1)c1ccccc1[N+](=O)[O-] | 11.2
O=Cc1sc([O-])nc1-[n+]1ccc2ccccc2c1 | 13.6
CCOC(=O)N1CCN(S(=O)(=O)N2CCCC(C(=O)NCCc3ccc(C)cc3)C2)CC1 (centres unmarked) | 13.2
CCCCCc1nnc(NC(=O)c2ccc3nc[nH]c3c2)s1 | 7.22
O=C(Cc1ccccc1)NNC(=O)Nc1cccc(Cl)c1 | 13.6
COc1ccc(CCNCc2cc3ccc(C)cc3[nH]c2=O)cc1OC | -53.5
Cn1c(Cc2ccccc2)nnc1SCC(=O)N1CCOCC1 | 5.94
Cc1cc(C)n(CCNC(=O)c2ccc3c(c2)OCO3)n1 | 15.8

Compound | hERG current change (%, negative = inhibition) at 1uM [%]
COc1ccc(Cl)cc1-n1c(C)cc(C(=O)O)c1C | 12.4
CCn1c(SCC(=O)Nc2ccc(OC)cc2)nnc1-c1ccco1 | 10.9
Cc1c2ccccc2nc2c(F)c(N(C)C)c(F)c(F)c12 | 19.7
Cn1c(=O)cc(SCC(=O)N2CCN(Cc3ccc4c(c3)OCO4)CC2)c2ccccc21 | 5.43
N/C(=N\OC(=O)COc1ccccc1Cl)c1ccc(Cl)cc1 | 10.5
CC1Oc2cc3oc4c(O)c(O)ccc4c(=O)c3c(O)c2C1(C)C (centres unmarked) | 14.4
CCN(CC)S(=O)(=O)c1ccc(S(=O)(=O)N2CCC(N3CCCCC3)CC2)cc1 | 3.19
CCC(C)NC(=O)C1c2ccccc2C(=O)N1Cc1ccc(OC)cc1OC (centres unmarked) | 16.3
Cc1c(N2CCCC2)cc2c(c1N)C(C)(C)CC2(C)C | 8.42
COc1ccc(OC)c(Nc2nc(-c3ccc(O)c(O)c3)cs2)c1 | 12.9
C=C1c2ccccc2NC(=S)N1Cc1ccc2c(c1)OCO2 | 19.7
COc1ccc(OCC(=O)Nc2cc(OC)ccc2N2CCCCC2)cc1 | 13.1
Cn1c2c(c(=O)n(C)c1=O)C(NC(=O)C(C)(C)C)(C(F)(F)F)C(=O)N2 (centres unmarked) | 10.5
COCCOC(=O)c1[nH]c2c(c1C)C(=O)CC(c1ccccc1)C2 (centres unmarked) | 8.09
Cn1c(SCC(=O)NCC2CCCO2)nc2scc(-c3ccccc3)c2c1=O (centres unmarked) | -0.951
CC(O)CSc1nc2c(c(=O)[nH]c(=O)n2C)n1CC(O)COc1ccccc1 (centres unmarked) | 11.9
CCCN1CCN(C(=O)Cn2ncc3ccccc32)CC1 | 18.2
O=C(CSc1oc(-c2cccs2)nc1S(=O)(=O)c1ccccc1)NC1CCCCC1 | 9.67
Cc1ccc(S/C=C\C(=O)c2ccccc2)cc1 | 4.45
CCOc1ncccc1C(=O)NNC(=O)c1cccc(S(=O)(=O)Nc2ccccc2OC)c1 | 0.371
Cc1ccc(Cc2cc(C)n[nH]c2=O)cc1 | 27.1
COc1ccc(NC(=S)Nc2ccc(OC)cc2OC)c(OC)c1 | 17.8
